The source of these data is the supplement of paper PMC9046079.

The structures appear in SMILES notation. Counter-ions that a name gives are not always drawn. ± gives the standard deviation of the averaged measurements. The list shows a part of the results.
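Further: 2.5D pseudo-monolayer culture of ISC-enriched organoids partly embedded atop Matrigel, compound added on day 0 and again on day 3, per-plate LOESS correction before median fold change.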

The test system of one test is murine small intestinal organoids (ENR+CD Paneth differentiation). Kind of test: cellular ATP (CellTiter-Glo 3D) relative to plate median (log10 fold change); higher = more viable cells. Conditions: 0.4 µM; 6 d.
With `CC(NC(=O)C(O)c1cc(F)cc(F)c1)C(=O)NC1C(=O)N(C)c2ccccc2-c2ccccc21` (centres undefined), the “cellular ATP (log10)” value is -0.172 ± 0.39.
On the same count and under the same terms, under `O=C(NCc1cccc(O)c1)Nc1nc(-c2ccncc2)cs1` stands -0.161 ± 0.31; under `COc1cc2nc(N3CCN(C(=O)C4COc5ccccc5O4)CC3)nc(N)c2cc1OC` (centres undefined) [Doxazosin Mesylate], -0.0154 ± 0.24.
On to `CC(C)Oc1ccc(-c2cnc3c(-c4ccnc5ccccc45)cnn3c2)cc1`, for which the “cellular ATP (log10)” value is -0.0786 ± 0.17.
For `CCc1nc(N)nc(N)c1-c1ccc(Cl)cc1` [Pyrimethamine], the “cellular ATP (log10)” value is -0.0426 ± 0.33.
On to `CS(=O)(=O)N1CCN(Cc2cc3nc(-c4cccc5[nH]ncc45)nc(N4CCOCC4)c3s2)CC1`, for which the “cellular ATP (log10)” value is 0.0224 ± 0.16.
As to `Cc1ccc(S(=O)(=O)n2c(N)nc3ccccc32)cc1` [ML130 (Nodinitib-1)], the “cellular ATP (log10)” value was found to be 0.0514 ± 0.11.
On the same count and under the same terms, then `C=CC(=O)Nc1cccc(Nc2nc(Nc3ccc(OCCOC)cc3)ncc2F)c1`, with 0.0567 ± 0.091; and `CC(C)C[C@H](NC(=O)[C@H](Cc1ccccc1)NC(=O)c1cnccn1)B(O)O` [Bortezomib (PS-341)], with -2.15 ± 1.3; and `CC(C)(C)c1cc(NC(=O)Nc2ccc(-c3cn4c(n3)sc3cc(OCCN5CCOCC5)ccc34)cc2)no1` [Quizartinib (AC220)], with -0.106 ± 0.27.
In the case of `O=C(/C=C/n1cnc(-c2cc(C(F)(F)F)cc(C(F)(F)F)c2)n1)N1CC(F)(F)C1`, the “cellular ATP (log10)” value was -0.0436 ± 0.11.
On the same count and under the same terms, under `Cn1cc(/C=C2\C(=O)Nc3cccnc32)c2ccccc21` stands -0.105 ± 0.14; under `N#CC1(c2ccc(NC(=O)c3cccnc3NCc3ccncc3)cc2)CCCC1` [Apatinib], 0.302 ± 0.058.
Same read-out and setting: under `NC(=O)c1cccc(-c2cccc(OC(=O)NC3CCCCC3)c2)c1` stands 0.0123 ± 0.27.
Take `COc1ccc(COc2ccc(Cc3cnc(N)nc3N)cc2OC)cc1`: the “cellular ATP (log10)” value was -0.284 ± 0.44.
For `Cc1ccc(S(=O)(=O)OCC(=O)Nc2ccc(C(=O)O)c(O)c2)cc1`, the “cellular ATP (log10)” value stood at 0.0613 ± 0.12.
Still for that read-out and setting: under `CCN(c1cc(-c2ccc(CN3CCOCC3)cc2)cc(C(=O)NCc2c(C)cc(C)[nH]c2=O)c1C)C1CCOCC1` stands 0.0747 ± 0.092; under `NC(=O)Nc1cc(-c2cccc(F)c2)sc1C(=O)N[C@H]1CCCNC1`, -0.384 ± 0.17; under `COc1ccc(CNCc2cccc3ccccc23)cc1`, -0.151 ± 0.18.
Regarding `CC(C)CCNC(=O)[C@H](CC(C)C)NC(=O)[C@H]1O[C@@H]1C(=O)O` [Loxistatin Acid (E-64C)], the “cellular ATP (log10)” value came out at 0.156 ± 0.23.
The same measure, in the same setting: under `O=C(O)c1cccc(-c2noc(-c3ccccc3F)n2)c1` [Ataluren (PTC124)] stands -0.34 ± 0.91; under `CN(Cc1cnc2nc(N)nc(N)c2n1)c1ccc(C(=O)N[C@@H](CCC(=O)O)C(=O)O)cc1` [Methotrexate], -0.722 ± 0.52; under `CN1C2CCCC1CC(NC(=O)c1nn(C)c3ccccc13)C2` (centres undefined) [Granisetron HCl], -0.086 ± 0.068.
Still for that read-out and setting: then `COc1cc(Br)c(Nc2nc(-c3c(C)nc4ncccn34)cs2)c(Br)c1`, with -0.235 ± 0.3.
Same read-out and setting: then `CN[C@@H](C)C(=O)N[C@H](C(=O)N1CCC[C@H]1C(=O)Nc1snnc1-c1ccccc1)C1CCCCC1`, with 0.158 ± 0.13; and `O=C1CC(=O)c2c(Cl)c(Cl)c(Cl)c(Cl)c21`, with 0.0222 ± 0.051.
On to `COc1cc2c(cc1Cc1cccc(Cl)c1F)c(=O)c(C(=O)O)cn2[C@H](CO)C(C)C` [Elvitegravir (GS-9137, JTK-303)], for which the “cellular ATP (log10)” value is -0.0396 ± 0.34.
The same measure, in the same setting: then `O=[N+]([O-])c1ccc2c(c1)S(=O)(=O)C=C2` [Stattic], with 0.0163 ± 0.2; and `CC(C)(C)c1cc(/C=C(\C#N)C(N)=S)cc(C(C)(C)C)c1O` [Tyrphostin AG 879], with -0.263 ± 0.2.
On the same count and under the same terms, then `CN1CCC[C@@H]1CCO[C@](C)(c1ccccc1)c1ccc(Cl)cc1` [Clemastine Fumarate], with 0.0362 ± 0.19; and `NC(=O)c1ncn([C@@H]2O[C@H](CO)[C@@H](O)[C@H]2O)c1N` [Acadesine], with 0.173 ± 0.22; and `O=C(O)Cc1cccc(OCCCN(Cc2cccc(C(F)(F)F)c2Cl)CC(c2ccccc2)c2ccccc2)c1`, with 0.201 ± 0.14.
Take `CNC(=C[N+](=O)[O-])NCCSCc1ccc(CN(C)C)o1` [Ranitidine]: the “cellular ATP (log10)” value amounted to 0.0593 ± 0.39.
On the same count and under the same terms, then `O=C(NOC[C@H](O)CO)c1ccc(F)c(F)c1Nc1ccc(I)cc1F`, with -1.16 ± 0.41; and `COc1ccc2cccc(CCNC(C)=O)c2c1` [Agomelatine], with 0.0808 ± 0.088; and `CNC(=O)c1cc(Oc2ccc(NC(=O)Nc3cc(C(C)(C)C)nn3-c3ccc4ncccc4c3)c(F)c2)ccn1` [DCC-2036 (Rebastinib)], with 0.218 ± 0.19.
For `CCN(CC)CC(=O)Nc1c(C)cccc1C` [Lidocaine], the “cellular ATP (log10)” value is -0.153 ± 0.25.

Staying with this test, now noted: 2 µM; 6 d.
Consider `CC(NC(=O)C(O)c1cc(F)cc(F)c1)C(=O)NC1C(=O)N(C)c2ccccc2-c2ccccc21` (centres undefined), for which the “cellular ATP (log10)” value is -0.172 ± 0.28.
On the same count and under the same terms, under `O=C(NCc1cccc(O)c1)Nc1nc(-c2ccncc2)cs1` stands -0.173 ± 0.19.
Same read-out and setting: then `COc1cc2nc(N3CCN(C(=O)C4COc5ccccc5O4)CC3)nc(N)c2cc1OC` (centres undefined) [Doxazosin Mesylate], with 0.146 ± 0.11; and `CC(C)Oc1ccc(-c2cnc3c(-c4ccnc5ccccc45)cnn3c2)cc1`, with -0.00164 ± 0.23.
Turning to `CCc1nc(N)nc(N)c1-c1ccc(Cl)cc1` [Pyrimethamine], the “cellular ATP (log10)” value is -0.118 ± 0.5.
The same measure, in the same setting: then `CS(=O)(=O)N1CCN(Cc2cc3nc(-c4cccc5[nH]ncc45)nc(N4CCOCC4)c3s2)CC1`, with -0.197 ± 0.26; and `Cc1ccc(S(=O)(=O)n2c(N)nc3ccccc32)cc1` [ML130 (Nodinitib-1)], with 0.119 ± 0.11; and `C=CC(=O)Nc1cccc(Nc2nc(Nc3ccc(OCCOC)cc3)ncc2F)c1`, with -0.0576 ± 0.21.
Same read-out and setting: then `CC(C)C[C@H](NC(=O)[C@H](Cc1ccccc1)NC(=O)c1cnccn1)B(O)O` [Bortezomib (PS-341)], with -0.915 ± 0.6; and `CC(C)(C)c1cc(NC(=O)Nc2ccc(-c3cn4c(n3)sc3cc(OCCN5CCOCC5)ccc34)cc2)no1` [Quizartinib (AC220)], with -0.238 ± 0.15.
As to `O=C(/C=C/n1cnc(-c2cc(C(F)(F)F)cc(C(F)(F)F)c2)n1)N1CC(F)(F)C1`, the “cellular ATP (log10)” value is -0.413 ± 0.37.
Still for that read-out and setting: under `Cn1cc(/C=C2\C(=O)Nc3cccnc32)c2ccccc21` stands 0.152 ± 0.15; under `N#CC1(c2ccc(NC(=O)c3cccnc3NCc3ccncc3)cc2)CCCC1` [Apatinib], 0.27 ± 0.12; under `NC(=O)c1cccc(-c2cccc(OC(=O)NC3CCCCC3)c2)c1`, 0.0999 ± 0.17.
The same measure, in the same setting: then `COc1ccc(COc2ccc(Cc3cnc(N)nc3N)cc2OC)cc1`, with 0.0286 ± 0.35; and `Cc1ccc(S(=O)(=O)OCC(=O)Nc2ccc(C(=O)O)c(O)c2)cc1`, with 0.000827 ± 0.23; and `CCN(c1cc(-c2ccc(CN3CCOCC3)cc2)cc(C(=O)NCc2c(C)cc(C)[nH]c2=O)c1C)C1CCOCC1`, with -0.0681 ± 0.18.
On to `NC(=O)Nc1cc(-c2cccc(F)c2)sc1C(=O)N[C@H]1CCCNC1`, for which the “cellular ATP (log10)” value was -0.804 ± 0.43.
For the compound `COc1ccc(CNCc2cccc3ccccc23)cc1`, the “cellular ATP (log10)” value was -0.247 ± 0.28.
On the same count and under the same terms, under `CC(C)CCNC(=O)[C@H](CC(C)C)NC(=O)[C@H]1O[C@@H]1C(=O)O` [Loxistatin Acid (E-64C)] stands 0.0801 ± 0.29; under `O=C(O)c1cccc(-c2noc(-c3ccccc3F)n2)c1` [Ataluren (PTC124)], -0.042 ± 0.31; under `CN(Cc1cnc2nc(N)nc(N)c2n1)c1ccc(C(=O)N[C@@H](CCC(=O)O)C(=O)O)cc1` [Methotrexate], -0.701 ± 0.19.
Still for that read-out and setting: then `CN1C2CCCC1CC(NC(=O)c1nn(C)c3ccccc13)C2` (centres undefined) [Granisetron HCl], with -0.178 ± 0.091.
Turning to `COc1cc(Br)c(Nc2nc(-c3c(C)nc4ncccn34)cs2)c(Br)c1`, the “cellular ATP (log10)” value is -0.808 ± 0.77.
The same measure, in the same setting: under `CN[C@@H](C)C(=O)N[C@H](C(=O)N1CCC[C@H]1C(=O)Nc1snnc1-c1ccccc1)C1CCCCC1` stands 0.00315 ± 0.2.
Turning to `O=C1CC(=O)c2c(Cl)c(Cl)c(Cl)c(Cl)c21`, the “cellular ATP (log10)” value is -0.095 ± 0.15.
On the same count and under the same terms, under `COc1cc2c(cc1Cc1cccc(Cl)c1F)c(=O)c(C(=O)O)cn2[C@H](CO)C(C)C` [Elvitegravir (GS-9137, JTK-303)] stands -0.344 ± 0.049; under `O=[N+]([O-])c1ccc2c(c1)S(=O)(=O)C=C2` [Stattic], 0.0464 ± 0.11.
Same read-out and setting: under `CC(C)(C)c1cc(/C=C(\C#N)C(N)=S)cc(C(C)(C)C)c1O` [Tyrphostin AG 879] stands -0.23 ± 0.11; under `CN1CCC[C@@H]1CCO[C@](C)(c1ccccc1)c1ccc(Cl)cc1` [Clemastine Fumarate], 0.0241 ± 0.094.
On the same count and under the same terms, then `NC(=O)c1ncn([C@@H]2O[C@H](CO)[C@@H](O)[C@H]2O)c1N` [Acadesine], with -0.00507 ± 0.11.
For the compound `O=C(O)Cc1cccc(OCCCN(Cc2cccc(C(F)(F)F)c2Cl)CC(c2ccccc2)c2ccccc2)c1`, the “cellular ATP (log10)” value worked out at 0.229 ± 0.18.
Still for that read-out and setting: under `CNC(=C[N+](=O)[O-])NCCSCc1ccc(CN(C)C)o1` [Ranitidine] stands -0.121 ± 0.15.
`O=C(NOC[C@H](O)CO)c1ccc(F)c(F)c1Nc1ccc(I)cc1F`: the “cellular ATP (log10)” value is -0.867 ± 0.7.
Still for that read-out and setting: then `COc1ccc2cccc(CCNC(C)=O)c2c1` [Agomelatine], with -0.198 ± 0.36; and `CNC(=O)c1cc(Oc2ccc(NC(=O)Nc3cc(C(C)(C)C)nn3-c3ccc4ncccc4c3)c(F)c2)ccn1` [DCC-2036 (Rebastinib)], with -0.0381 ± 0.39; and `CCN(CC)CC(=O)Nc1c(C)cccc1C` [Lidocaine], with 0.034 ± 0.1.
